Measured values taken from PubChem BioAssay AID463173 (ICCB-Longwood Screening Facility, Harvard Medical School, 2010).
The campaign covered roughly 52,000 compounds. About 4,300 (8.3%) were called active. Cut-off read from the data, not from the text of the source: active = survival mostly below about 52% (no sharp cut-off); inactive = mostly above about 56%. This is one part of the list.

Test system: DeltatarO mutant
Test: S. aureus survival, RN4220 and DeltatarO strains – OD600, teichoic acid synthesis inhibitors, primary screen (AID 463173)
Settings: S. aureus RN4220 wild type/DeltatarO growth, OD600, 18 h, stronger effect = lower value, screened at 18.75 µg/mL (by protocol)

Structure (SMILES)	survival
CCOC(=O)c1cccc(NC(=O)Cn2c(CC(=O)N3CCCC3)nc3ccccc32)c1	inactive: 83%
O=S1(=O)CCC(NC(=S)SCCOc2ccccc2OCCO)C1 (stereo not given)	inactive: 90%
COc1cc(C(CC(=O)Nc2ccc(Br)cn2)N2Cc3ccccc3C2=O)cc(OC)c1OC (stereo not given)	inactive: 78%
C=CCc1c(C)nc(SC)nc1Nc1ccc(C(=O)O)cc1	inactive: 113%
CCCC1(C(=O)OC)NC(c2cc(OC)c(OC)c(OC)c2)C2C(=O)N(c3ccc(C)cc3)C(=O)C21 (stereo not given)	inactive: 85%
Cc1c(C(=O)Nc2cccc(F)c2)oc2c1-c1nn(Cc3c(F)cccc3Cl)cc1CC2	inactive: 101%
COc1ccc(NC(=O)CSc2nnc(-c3ccc(OC)cc3)s2)cc1	inactive: 84%
COc1cccc(C(c2sc3nc(-c4ccco4)nn3c2O)N2CCOCC2)c1 (stereo not given)	inactive: 74%
Cc1ccc(Nc2nc3ccc(C)cc3nc2-n2nc(C)cc2C)c(C)c1	inactive: 81%
CC(C)C(=O)Nc1nnc(S(=O)(=O)N2CCCCCC2)s1	inactive: 85%
COc1ccc(N(CC(=O)NCc2ccccc2Cl)S(=O)(=O)c2c(C)[nH]c(=O)[nH]c2=O)cc1	inactive: 90%
O=C(C1COc2ccccc2O1)N1CCN(c2nc3c(F)cccc3s2)CC1 (stereo not given)	inactive: 77%
COCCNC(=O)C1CCC(CNS(=O)(=O)c2ccc3c(c2)CC(C)N3C(C)=O)CC1 (stereo not given)	inactive: 73%
COc1ccc(N2CC3=C(C2=O)C(c2ccc(O)c(OC)c2)NC(=O)N3C)cc1 (stereo not given)	inactive: 87%
CCOc1ccccc1NC(=O)Cn1cnc2c1c(=O)n(C)c(=O)n2C	inactive: 71%
CCOC(=O)c1ccccc1NC(=O)c1cc2c(s1)-c1c(C)cccc1OC2	inactive: 137%
Cc1c(Cl)cccc1NC(=O)NCc1c(-n2cccc2)sc2c1CCCC2	inactive: 91%
Cc1ccc(N(Cc2cccs2)C(=O)Nc2cccc(Cl)c2)cc1	inactive: 80%
Cc1ccc(Cn2c(=O)n(CC3CCC(C(=O)N4CCC(C)CC4)CC3)c(=O)c3sccc32)cc1 (stereo not given)	inactive: 69%
Cc1ccc(CNC(=O)c2c(O)nc3ccccn3c2=O)cc1	inactive: 89%
Cc1oc2c(c1C(=O)Nc1ccccc1Br)C1=NCCN1C=N2	inactive: 75%
O=C(NCCc1cccs1)c1ccc(Cn2c(SCc3ccccc3)nc3cccnc32)cc1	inactive: 99%
COc1cccc(CNC(=O)c2sc3nc4n(c(=O)c3c2C)CCC4)c1	inactive: 103%

Structure (SMILES)	survival
COCCCNC(=O)c1cc(-c2ccc(OC)cc2)nc2n[nH]c(-c3ccc(Cl)cc3)c12	inactive: 73%
COc1ccc(CCNC(=O)c2cnc3ccc(C)cn3c2=O)cc1OC	inactive: 90%
Cn1ncc2c(NCc3ccc(Cl)cc3)ncnc21	inactive: 83%
Cc1c(C(=O)Nc2ccc(F)cc2F)oc2ccc3c(c12)C(=O)CC(C)(C)O3	inactive: 80%
CC(C)OCCCNc1sc(S(=O)(=O)c2ccccc2)nc1S(=O)(=O)c1ccc(Cl)cc1	inactive: 69%
CCOc1ccccc1NC(=O)CSc1nc2c(oc3ccccc32)c(=O)n1C(C)C	inactive: 91%
Cc1nn(CCC(=O)Nc2cccc(C#N)c2)c(C)c1S(=O)(=O)N1CCC(C)CC1	inactive: 89%
COC(=O)c1ccccc1NC(=O)Cc1nc(-c2ccc(OC)cc2)no1	inactive: 102%
COc1ccc(-n2cnc3cc(C(=O)NCCC4=CCCCC4)ccc32)cc1	inactive: 75%
O=C(Nc1cccc(C(=O)OCc2cc(=O)n3ccsc3n2)c1)c1ccc(F)cc1	inactive: 119%
COc1ccc(OC)c(NC(=O)CN(c2ccccc2OC)S(=O)(=O)c2ccc(C)cc2)c1	inactive: 54%
Cc1csc2nc(COC(=O)c3ccc(NC(=O)c4ccccc4Br)cc3)cc(=O)n12	inactive: 122%
CCOCCCNC(=O)CCC(=O)NNc1nc2ccccc2c2nc(C)nn12	inactive: 89%
Cc1nc2nc(SCC(=O)NCCc3ccc(Cl)cc3)nn2c(C)c1Cc1c(F)cccc1Cl	active: 0%
CCN(c1ccc(C)cc1C)S(=O)(=O)c1nnc(NC(=O)c2ccc(F)cc2)s1	active: 14%
COc1ccc(CCN(Cc2cc3cc(C)ccc3n3nnnc23)C(=O)N(C)C)cc1OC	inactive: 86%
Cc1ccc2oc(=O)c(-c3nc(-c4cccs4)no3)cc2c1	inactive: 86%
COc1cccc(-c2cc(C(=O)Nc3ccc(OC)cc3OC)no2)c1	inactive: 56%
Nc1ncc(S(=O)(=O)N2CCN(c3ccccc3)CC2)cn1	inactive: 109%
COc1cc(NC(=O)CSc2ccc(-c3sc(C)nc3C)nn2)cc(OC)c1	active: 6%
Cc1ccc(S(=O)(=O)C(CNC(=O)C(=O)NCCc2ccc(F)cc2)c2cccs2)cc1 (stereo not given)	inactive: 67%
O=C(CSc1nc2c([nH]c3ccccc32)c(=O)n1-c1ccc(F)cc1)Nc1ccc2c(c1)OCO2	inactive: 58%
COc1ccc(Cl)cc1NC(=O)c1oc2ccc(S(=O)(=O)N3CCCCC3)cc2c1C	inactive: 67%

Structure (SMILES)	survival
COc1ccc(N2CCN(C(=O)c3ccc(CS(=O)c4cccc(C)c4)o3)CC2)cc1 (stereo not given)	inactive: 80%
CCCOc1ccc(C(=O)Nc2cccc(NC(=O)c3ccc(Cl)cc3Cl)c2)cc1	inactive: 84%
Cc1nn(CC(=O)NCc2ccco2)c(=O)c2nn(-c3ccccc3)c(C)c12	inactive: 92%
CC(=O)N1CCc2cc(CNS(=O)(=O)c3ccccc3C(F)(F)F)ccc21	inactive: 80%
O=C(CSc1nc2ccccc2n1Cc1cccc(C(F)(F)F)c1)NCc1ccccc1	inactive: 75%
CC(=O)Nc1ccc(NC(=O)c2c(-c3ccccc3)noc2C)cc1	inactive: 75%
O=C(O)c1ccc(CSc2nc3cccnc3n2Cc2cccc(F)c2)cc1	inactive: 93%
Cc1cccc(OCC(=O)Nc2ccc(S(=O)(=O)N(Cc3ccccc3)c3ccccc3)cc2)c1	inactive: 82%
Cc1cc(-n2c(C)nc3ccccc3c2=O)ccc1NC(=O)c1cccc([N+](=O)[O-])c1C	active: 0%
CCc1nn(CC(=O)NCC(C)c2ccccc2)c(=O)c2cc3c(OC)cccc3n12 (stereo not given)	inactive: 82%
COC(=O)c1ccccc1NC(=O)C1CCCN(C(=O)c2cnn(-c3ccc(F)cc3)c2-n2cccc2)C1 (stereo not given)	inactive: 93%
COCCn1c(=O)[nH]c2cc(C(=O)N3CCN(c4ccc(F)cc4)CC3)ccc2c1=O	inactive: 70%
c1ccc2c(-n3cccn3)cccc2c1	inactive: 94%
Oc1c(C(c2cccc(Cl)c2)N2CCOCC2)sc2nc(-c3ccco3)nn12 (stereo not given)	inactive: 84%
CCN1c2ccccc2-c2nc(SCC(=O)Nc3cc(C)c(Cl)cc3OC)ncc2S1(=O)=O	inactive: 91%
O=S(=O)(c1ccc(S(=O)(=O)N(Cc2cccs2)C2CCCCC2)cc1)N1CCCC1	inactive: 91%
COc1ccc(CCNC(=O)c2c3c(nc4ccccc24)C(=O)N(C2CCCCC2)C3)cc1OC	inactive: 103%
O=C(COc1ccc(F)cc1)NCc1ccc2c(c1)CCN2C(=O)c1ccc(F)cc1	inactive: 70%
O=C1CC(=O)N(Cc2cccs2)C(=O)N1	inactive: 77%
O=C(Nc1ccc(F)c(Cl)c1)C1CCN(c2ncccn2)CC1	inactive: 63%
O=C(Nc1ccccn1)NC12CC3CC(CC(C3)C1)C2	inactive: 106%
C1=C(c2cccs2)OC(c2cccs2)=CC1c1cccs1	inactive: 52%
Cc1ccc(-n2ncc3c(N4CCN(Cc5ccccc5)CC4)ncnc32)cc1C	inactive: 88%

Structure (SMILES)	survival
N#C/C(=C\c1ccc(-c2ccc(Br)cc2)o1)C(=O)Nc1ccccc1O	inactive: 70%
Cc1oc(-c2ccccc2F)nc1Cn1c(SCc2cccc(Cl)c2)nc2ccncc21	inactive: 60%
CCOCCc1nn2c(=O)cc(COC(=O)c3ccccc3Br)nc2s1	inactive: 87%
CCOC(=O)C1(CCSC)NC(c2cccs2)C2C(=O)N(CC)C(=O)C21 (stereo not given)	inactive: 90%
O=C(NCCc1csc(-c2ccc(C(F)(F)F)cc2)n1)c1ccccc1Cl	inactive: 96%
Cn1c(=O)n(C)c2cc(CNCc3ccc(F)cc3)ccc21	inactive: 92%
Cc1ccc(C(=O)N2CCc3cc(CNC(=O)c4ccccc4F)ccc32)cc1	inactive: 77%
Cc1c(NC(=O)Nc2ccccc2C(F)(F)F)c(=O)n(-c2ccccc2)n1C	inactive: 92%
CCOc1ccc(C2=C(C(C)=O)Sc3nnc(C)n3N2C(C)=O)cc1	inactive: 89%
Cc1cc(C)cc(-n2c(SCC(=O)Nc3ccccc3F)nc3c(oc4ccccc43)c2=O)c1	inactive: 70%
Cc1ccc(Cn2cnc3nc4c(cc3c2=O)CCCC4)cc1	inactive: 81%
CCOc1ccc(NC(=O)c2cccc3c(=O)c4c([nH]c23)CCCC4)cc1	inactive: 68%
O=C(CS(=O)(=O)c1ccc(Cl)cc1)Nc1nc2ccc(Br)cc2s1	inactive: 54%
COc1ccc(CCNC(=O)CCN2N=C(c3ccccc3)CCC2=O)cc1OC	inactive: 84%
Cc1ccc(NC(=O)N(Cc2c[nH]c3ccccc23)C2CCCCCC2)cc1C	inactive: 56%
O=C(OCCN1CCOCC1)c1ccccc1	inactive: 88%
COc1ccc(CCNC(=O)Cc2c(C)c3ccc(O)c(C)c3oc2=O)cc1OC	inactive: 63%
O=c1n(Cc2ccc([N+](=O)[O-])cc2)c2ccccc2c2nc(-c3ccccc3)nn12	inactive: 129%
CSc1ccc(CCNC(=O)CN2C(=O)COc3ccc(S(=O)(=O)N4CCCC4)cc32)cc1	inactive: 112%
CCOc1ccc(NC(=O)c2cnn3c2NC(c2ccccc2)=CC3c2cccc(OC)c2OC)cc1 (stereo not given)	inactive: 62%
Clc1ccc(-c2nnn3c2nc(N2CCCCC2)c2ccccc23)cc1	active: 25%
